Results: patent US6051689, “Receptor for the glucagon-like-peptide (GLP-1)” (Novo Nordisk A/S, dated 2000)

Target: T1, rat GLP-1 receptor (rat)
T1 chain: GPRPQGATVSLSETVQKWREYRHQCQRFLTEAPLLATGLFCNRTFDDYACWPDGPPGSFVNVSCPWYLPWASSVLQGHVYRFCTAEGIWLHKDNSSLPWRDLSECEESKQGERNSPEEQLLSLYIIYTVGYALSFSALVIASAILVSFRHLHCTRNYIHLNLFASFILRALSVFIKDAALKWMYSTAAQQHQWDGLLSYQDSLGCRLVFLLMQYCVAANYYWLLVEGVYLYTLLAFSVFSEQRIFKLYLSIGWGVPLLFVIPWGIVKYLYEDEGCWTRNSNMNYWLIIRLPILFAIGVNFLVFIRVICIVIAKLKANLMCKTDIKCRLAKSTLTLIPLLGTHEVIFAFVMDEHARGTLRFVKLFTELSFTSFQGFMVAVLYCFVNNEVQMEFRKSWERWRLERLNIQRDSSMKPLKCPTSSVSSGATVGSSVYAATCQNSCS
Assay: displacement of 20 pM 125I-GLP-1 from COS cells transfected with the rat GLP-1 receptor cDNA

IC50: 1 µM
B1: glucagon (ligand)
peptide: not shown
